PubChem BioAssay AID485294 (National Center for Advancing Translational Sciences (NCATS), 2010)
Among all 370,000 compounds or so, about 150 (0.041%) were called active. The shares of active, inactive and inconclusive entries below differ from those in the screen. Calls come from the whole dose curve; as a rule, active = well fitted inhibition curve with a large enough effect; inconclusive = small, poorly fitted or top-dose-only effect; inactive = flat fitted curve, though single readings scatter. No potency is given beside an inconclusive call; the fits are too rough.
Note: nearly all actives have a fitted effect of over 25% in size.
Potency is the fitted concentration of half-maximal effect; tags give direction and shape of the fitted curve.

The compounds below were run against Beta-lactamase (Escherichia coli (strain K12)) (UniProt P00811) (assay: qHTS Inhibitors of AmpC Beta-Lactamase (assay with detergent)). Settings: AmpC hydrolysis of nitrocefin, absorbance 480 nm, 0.01% Triton; series mostly up to 114 µM.
Chain of UniProt P00811 (P00811 whole entry, looked up): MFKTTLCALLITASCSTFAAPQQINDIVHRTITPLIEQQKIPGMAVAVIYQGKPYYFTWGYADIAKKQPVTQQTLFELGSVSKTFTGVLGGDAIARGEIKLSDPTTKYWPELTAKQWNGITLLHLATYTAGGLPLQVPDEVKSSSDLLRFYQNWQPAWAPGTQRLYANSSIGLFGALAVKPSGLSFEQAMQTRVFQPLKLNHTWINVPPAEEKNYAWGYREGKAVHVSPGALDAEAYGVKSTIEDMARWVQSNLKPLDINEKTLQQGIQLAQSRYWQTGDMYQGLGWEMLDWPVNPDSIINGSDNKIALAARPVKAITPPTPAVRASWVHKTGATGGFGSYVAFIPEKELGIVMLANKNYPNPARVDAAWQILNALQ
Method in brief: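 20 mM phosphate pH 7.0 + 0.01% (detergent screen) or 0.0001% Triton X-100; 5.3 nM AmpC reagent; cpd preinc 15 min RT; nitrocefin (800 uM stock) to start; A480 q20 s × 4 min; Activity was normalised to no-enzyme and no-compound control wells.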
For `Cc1cccc(OCC(=O)NCC2(N3CCN(C)CC3)CCCCC2)c1`, the Potency was “inactive”. For `Cc1nc2ccccc2c2oc(C(=O)NCCCN3CCC(C)CC3)cc12`, the Potency was inconclusive [inhibitor, full curve]. `COC(=O)COc1cccc(NC(=O)c2cccc(C)c2)c1` was tested, and the Potency was “inactive”. With `Fc1ccc(C2NCCn3cccc32)cc1` (stereo unspecified) the Potency was “inactive”. In the case of `NC(=O)C(CC(=O)O)NC(=O)[C@@H]1CCCCNc2c(I)cc([N+](=O)[O-])cc2C(=O)N[C@@H](CO)C(=O)NCC(=O)N1` (stereo partly specified), the Potency is reported as inconclusive [inhibitor, full curve]. With `O=C(NCCN1CCOCC1)c1cc2cc(Br)ccc2oc1=O` the Potency was inconclusive [inhibitor, single point]. `CC(C)CCOP(N)(=O)Oc1ccccc1Cl` (stereo unspecified) was tested, and the Potency was inconclusive [inhibitor, full curve, poor fit]. In the case of `CN(C)c1ccc(NC(=O)/C=C/c2ccccc2Cl)cc1`, the Potency is reported as inconclusive [inhibitor, single point]. For `COc1cccc(Cn2cc(-c3cccc(C(F)(F)F)c3)nn2)c1`, the Potency was inconclusive [inhibitor, full curve, poor fit]. For `Cc1ccnc2nc(C(=O)OCC(=O)NC3CCCC(C)C3C)nn12` (stereo unspecified), the Potency was inconclusive [inhibitor, partial curve, poor fit]. `c1cnc2ncc3sccc3c2c1` was tested, and the Potency was inconclusive [inhibitor, full curve]. For `O=C(CSc1nc2c([nH]c3ccccc32)c(=O)n1-c1cccc(C(F)(F)F)c1)N1CCCC1`, the Potency was “inactive”. For `COc1ccc2c(COC(=O)CNC(=O)C34CC5CC(CC(C5)C3)C4)cc(=O)oc2c1`, the Potency was inconclusive [inhibitor, single point]. With `COc1cn(CC(=O)Nc2ccc(C)cc2C)c(CN2CCCCC2)cc1=O` the Potency was “inactive”. For `CCCCn1c(N)c(N(CC(C)C)C(=O)CSCC(=O)Nc2cccc(C)c2)c(=O)[nH]c1=O`, the Potency was “inactive”. For `C/C(=N/NS(=O)(=O)c1ccc(C)cc1)c1cccc(NC(=O)c2cccc(Cl)c2)c1`, the Potency was “inactive”. In the case of `COc1cc(C)ccc1OCCCCNCc1ccccc1`, the Potency is reported as inconclusive [inhibitor, full curve, poor fit]. In the case of `CCOC(=O)N1CCC(Nc2c(Nc3cccc(CC)c3)c(=O)c2=O)CC1`, the Potency is reported as “inactive”. In the case of `COCCCN1C(=O)C(=O)/C(=C(/O)c2ccc(OC(C)C)cc2)C1c1ccc(O)c(OC)c1` (stereo unspecified), the Potency is reported as inconclusive [inhibitor, partial curve]. In the case of `COc1cc(OC)c(OC)cc1CNCCc1ccc2c(c1)OCO2`, the Potency is reported as inconclusive [inhibitor, full curve, poor fit]. `CCOC(=O)N1CCN(CCC(=O)Nc2ccc(OC)cc2OC)CC1` was tested, and the Potency was inconclusive [inhibitor, partial curve, poor fit]. `COC(=O)c1cc2n3ccccc3c(C)c(-c3ccccc3)c-2c1C(=O)OC` was tested, and the Potency was inconclusive [inhibitor, full curve, poor fit]. For `CCOC(=O)C1CCCN(S(=O)(=O)c2ccc(Cl)nc2)C1` (stereo unspecified), the Potency was inconclusive [inhibitor, partial curve, poor fit]. With `CC(O)C(C(=O)OCc1ccc([N+](=O)[O-])cc1)N1C(=O)c2ccccc2C1=O` (stereo unspecified) the Potency was active: 79.4 µM. With `C=CCNC(=O)CC1Nc2c3ccccc3nc(=S)n2C1=O` (stereo unspecified) the Potency was inconclusive [inhibitor, single point]. `N#Cc1c[nH]n2c(NC3CCCC3)c(-c3ccc(Br)cc3)nc12` was tested, and the Potency was “inactive”. In the case of `COC(=O)Nc1ccc(S(=O)(=O)NCc2ccccn2)cc1`, the Potency is reported as inconclusive [inhibitor, full curve]. With `Cc1ccc(Cl)cc1N1CCN(C(=O)c2cnn(-c3ccc(Cl)cc3)c2C2CCNCC2)CC1` the Potency was “inactive”. For `Cc1cc(C)cc(NC(=O)c2cc(S(=O)(=O)N3CCOCC3)cn2C)c1`, the Potency was “inactive”. For `O=C(COC(=O)CC1CCCC1)Nc1cc2c(cc1Cl)C(=O)c1ccccc1C2=O`, the Potency was inconclusive [inhibitor, partial curve, poor fit]. In the case of `Cc1ccc(N2CCN(c3nc4ccccc4n4nnnc34)CC2)c(C)c1`, the Potency is reported as “inactive”. In the case of `COc1cccc(C(=O)Nc2ccccc2SCc2cc(=O)c3cccc(C)c3[nH]2)c1`, the Potency is reported as “inactive”. In the case of `O=C(ON=C1CCN(S(=O)(=O)c2ccccc2)CC1)c1cccc(Cl)c1`, the Potency is reported as inconclusive [inhibitor, full curve, poor fit]. For `Cc1ccccc1-c1nc(CS(=O)(=O)CC(=O)N2CCc3ccccc32)c(C)o1`, the Potency was inconclusive [inhibitor, full curve, poor fit]. `CCOC(=O)c1cccc(NC(=O)C2CCCO2)c1` (stereo unspecified) was tested, and the Potency was inconclusive [inhibitor, single point]. In the case of `O=C(C1CCN(S(=O)(=O)c2cccs2)CC1)N1CCc2ccccc2C1`, the Potency is reported as inconclusive [inhibitor, full curve, poor fit]. For `CCc1cc2c(=O)c(-c3ccc4c(c3)OCCO4)c(C)oc2cc1OS(C)(=O)=O`, the Potency was inconclusive [inhibitor, single point]. `O=C(COc1ccc(Br)cc1CNCCc1ccccc1)NCc1ccccc1` was tested, and the Potency was “inactive”. In the case of `NC(=S)N/N=C/c1cc([N+](=O)[O-])ccc1OCCOc1ccccc1`, the Potency is reported as inconclusive [inhibitor, single point]. For `Cc1cc(C)cc(NC(=O)CSCc2cc(=O)n3ccsc3n2)c1`, the Potency was inconclusive [inhibitor, single point]. For `O=C(NCCc1cccc(F)c1)/C(=C/c1cccnc1)NC(=O)c1ccccc1`, the Potency was inconclusive [inhibitor, full curve, poor fit]. `[2H]C([2H])(CCOS(N)(=O)=O)c1ccccc1` was tested, and the Potency was inconclusive [inhibitor, full curve, poor fit]. `CNS(=O)(=O)c1cccc(C(=O)OCC(=O)N2c3ccccc3NC(=O)C2(C)C)c1` was tested, and the Potency was inconclusive [inhibitor, full curve, poor fit]. In the case of `Cc1nc2sc(C(=O)c3ccccc3)c(N)c2c2c1CCCC2`, the Potency is reported as inconclusive [inhibitor, full curve, poor fit]. In the case of `Cc1ccc(CCNC(=O)c2ccc(Cn3c(=O)c4cccn4c4cccnc43)cc2)cc1`, the Potency is reported as inconclusive [inhibitor, single point]. With `Cc1cc(C(=O)Nc2ccccc2[N+](=O)[O-])cs1` the Potency was “inactive”. For `Cc1ccc2c(c1)N(C(=O)CCC(=O)NCc1cccc(F)c1)CCO2`, the Potency was inconclusive [inhibitor, partial curve, poor fit]. With `CCOc1c2c(nc3ccc(Cl)cc13)CCC2` the Potency was inconclusive [inhibitor, single point]. With `CC(NC(=O)NC1CCCCC1)C(c1cccs1)N1CCN(Cc2ccccc2)CC1` (stereo unspecified) the Potency was inconclusive [inhibitor, full curve, poor fit]. In the case of `O=C(Nc1ccc2c(c1)OCCO2)NC1(C(F)(F)F)Oc2ccccc2O1`, the Potency is reported as inconclusive [inhibitor, full curve, poor fit]. With `Cc1c2ccccc2cc[n+]1CCCS(=O)(=O)[O-]` the Potency was inconclusive [inhibitor, full curve]. With `O=C(CN1CCCCCC1)Nc1ccccc1OC(F)F` the Potency was inconclusive [inhibitor, full curve, poor fit]. With `CCn1cc(C(C)NC(=O)COc2ccc(Cl)cc2C)c(C)n1` (stereo unspecified) the Potency was inconclusive [inhibitor, full curve, poor fit]. In the case of `Cc1ccccc1S(=O)(=O)Cc1ccc(C(=O)NC(C)c2ccccc2)o1` (stereo unspecified), the Potency is reported as inconclusive [inhibitor, full curve]. In the case of `O=C(CCC(=O)N(Cc1ccco1)C(C(=O)NC1CCCC1)c1ccncc1)Nc1cccnc1` (stereo unspecified), the Potency is reported as inconclusive [inhibitor, partial curve]. In the case of `CC(=O)c1ccc(NC(=O)CSc2nc(N3CCOCC3)nc(N3CCOCC3)n2)cc1`, the Potency is reported as inconclusive [inhibitor, full curve, poor fit]. For `Cc1ccc2[nH]c(C(=O)O)c(NC(=O)CN3CCN(c4cccc(C)c4C)CC3)c2c1`, the Potency was inconclusive [inhibitor, full curve]. With `Fc1ccc(N2CCN(Cc3nnc(-c4ccccc4)o3)CC2)cc1` the Potency was inconclusive [inhibitor, partial curve, poor fit]. In the case of `COc1cc(C(=O)Nc2nncs2)cc(OC)c1OC`, the Potency is reported as inconclusive [inhibitor, partial curve, poor fit]. `CCN(/C(N)=N/c1nc(C)cc(C)n1)c1ccccc1` was tested, and the Potency was inconclusive [inhibitor, full curve, poor fit]. For `O=C1CN(C(=O)c2ccc(S(=O)(=O)N3CCCCC3)cc2)C(c2ccc(F)cc2)c2cc(Br)ccc2N1` (stereo unspecified), the Potency was “inactive”. In the case of `CC(C)CCNC(=O)C1C2C=CC3(CN(Cc4ccccc4Cl)C(=O)C13)O2` (stereo unspecified), the Potency is reported as inconclusive [inhibitor, full curve, poor fit]. In the case of `CCc1ccc(OCC(=O)N(C)C)c(Br)c1`, the Potency is reported as inconclusive [inhibitor, full curve]. In the case of `COc1cccc(C(=O)CSc2nnc(COc3cccc4cccnc34)o2)c1`, the Potency is reported as inconclusive [inhibitor, partial curve, poor fit]. `O=c1[nH]nc(Sc2ncnc3sccc23)n1CCc1ccccc1` was tested, and the Potency was “inactive”. With `COc1ccc(-c2cc(C(=O)N3CCCc4ccccc43)no2)cc1OC` the Potency was “inactive”.
